Test results taken from PubChem BioAssay AID445 (National Center for Advancing Translational Sciences (NCATS), 2006).
The campaign covered roughly 110,000 compounds. About 40 (0.04%) were called active. The shares of active, inactive and inconclusive entries below differ from those in the screen. Calls follow the shape of the dose curve; as a rule, active = well fitted curve in the direction sought with a large enough effect in the signal ratio (not every such curve was filed as active); inconclusive = small, poorly fitted or top-dose-only effect, or a change in a side signal; inactive = flat fitted curve, though single readings scatter; the % refers to the signal ratio. A potency beside an inconclusive call is a rough fit, not a confirmed value.

Experiment: IkB Signaling;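 as to IkBa stabilization activation: 0% = basal untreated cells and 100% = reference inhibitor full response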
Conditions: ABC-DLBCL IkBa-CBG/CBR dual luciferase ratio (green luciferase fused to IkBa over red control in OCI-Ly3 lymphoma cells), 4 h; IkBa stabilization activation: at 57.1 µM (top of the series), scaled: untreated 0%, proteasome inhibitor 100% unless noted
Summary of the method: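 Curves were fitted separately to fusion (green), unfused (red) and ratio luminescence, then classed by r2, magnitude and activity. Cells: OCI-Ly3, 4 h compound plus doxycycline at 37C; 10 uM MG-132 defined full response.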
Potency is read from the fitted curve at half-maximal effect.

SMILES	IkBa stabilization activation	Potency
O=C(c1cccc(F)c1)N1CCC2(CCN(Cc3cc(C(F)(F)F)cc(C(F)(F)F)c3)CC2)CC1	inactive: 3.46% [at 11.4 µM, scaled: untreated 0%, proteasome inhibitor 100%]	
O=C(c1cccc(F)c1)N1CCC2(CC1)CCN(c1ccc(-c3ccccc3)cc1)CC2	inactive: 0.876% [at 11.4 µM, scaled: untreated 0%, proteasome inhibitor 100%]	
O=C(Cc1ccc(Cl)cc1)NCC(c1cccs1)S(=O)(=O)c1ccc(F)cc1 (centres undefined)	inconclusive: 1.81% [signal inhibitor]	
Cc1cccc(N2CCN(CCCNC(=O)c3nnc(Cc4c(F)cccc4Cl)o3)CC2C)c1 (centres undefined)	inconclusive: 5.9% [signal inhibitor]	
COc1ccc(Cl)c(NC(=O)Cn2nnc(-c3ccccc3N)n2)c1	inconclusive: 15.1% [signal inhibitor]	
O=C(NCCc1ccccc1)c1ccc2c(c1)N(Cc1ccccc1)C(=O)c1ccccc1S2(=O)=O	inactive	
COc1cccc(OCc2nc3ccccc3[nH]2)c1		inconclusive: 12.6 µM [signal inhibitor, partial curve]
O=C(OCC(=O)N1CCN(C(=O)c2ccco2)CC1)c1ccccc1OCc1ccc(Cl)cc1	inconclusive: 3.86% [signal inhibitor]	
O=C(NCCc1ccccc1)C1CCN(Cc2cc3ccccc3n2Cc2cccc(Cl)c2)CC1	inconclusive: -1.01% [signal inhibitor]	
Cc1ccc(S(=O)(=O)N2CCC(C(=O)O)(c3ccccc3)CC2)cc1	inactive: 2.31% [at 11.4 µM, scaled: untreated 0%, proteasome inhibitor 100%]	
COc1ccc(CNC(=O)c2cc(=O)[nH]c3ccc(S(=O)(=O)N4CCCC4)cc23)c(OC)c1	inconclusive: 1.1% [signal inhibitor]	
COc1ccc(Cl)cc1NC(=O)c1ccc2c(c1)CCN2S(C)(=O)=O	inconclusive: -2.89% [signal inhibitor]	
COc1cccc(Nc2sc(C(=O)c3ccc(Cl)cc3)c(N)c2C(=O)NCc2ccc(C)cc2)c1	inconclusive: 10.6% [signal inhibitor]	
O=C(NCc1cccs1)O[C@H]1C[C@H]2CC[C@@H]1C2	inactive: -0.586% [at 11.4 µM, scaled: untreated 0%, proteasome inhibitor 100%]	
CCSC1=C(C#N)C2(CCCCC2)C(C#N)=C(N)N1	inactive	
CCOC(=O)CNc1ncnc2nc[nH]c12		inconclusive: 25.1 µM [signal inhibitor, partial curve]
Cc1c(Cl)cccc1NC(=O)C1CCCN(c2ncnc3onc(C)c23)C1 (centres undefined)	inconclusive: 9.05% [signal inhibitor]	
CCCCOc1ccc(NC2=NC3(CCCCC3)N=C(N)N2)cc1	inconclusive: 8.43% [signal inhibitor]	
N#Cc1ccc(CN2CCCC3(CCNCC3)C2)cc1	inactive: 2.31% [at 11.4 µM, scaled: untreated 0%, proteasome inhibitor 100%]	
O=C(NCc1ccccc1Cl)c1ccc2c(c1)N(Cc1ccccc1)C(=O)CS2	inconclusive: 1.32% [signal inhibitor]	
CC1CCN(S(=O)(=O)c2ccc3c(c2)c(=O)c(C(=O)NC(C)c2ccccc2)cn3C)CC1 (centres undefined)	inconclusive: -1.37% [signal inhibitor]	
Cc1ccc(Cl)cc1N1CCN(C(=O)c2ccc3c(c2)CCN3S(=O)(=O)c2ccccc2)CC1	inconclusive: 4.06% [signal inhibitor]	

SMILES	IkBa stabilization activation	Potency
Cc1ccc(-c2nnc(Nc3cccc(O)c3)c3ccccc23)cc1S(=O)(=O)NCC1CCCO1 (centres undefined)		inconclusive: 25.1 µM [signal inhibitor]
CC(=O)c1cccc(NC(=O)Nc2nnc(N3CCCC3)s2)c1	inconclusive: 5.15% [signal inhibitor]	
COc1cccc(CNC(=O)c2ccc3c(=O)n4nc(Nc5ccccc5)sc4nc3c2)c1	inconclusive: 0.448% [signal inhibitor]	
CCCOc1ccc(CNC(=O)c2ccc(C)c(-n3c(C)nc4cccnc43)c2)cc1	inconclusive: 1.6% [signal inhibitor]	
COc1ccc(-n2nc(C(=O)Nc3ccc(Cl)cn3)c3c4ccccc4n(C)c3c2=O)cc1	inactive	
COc1ccc2cc(-c3nnc(Nc4ccccc4)s3)c(=O)oc2c1	inconclusive: 5.3% [signal inhibitor]	
COc1ccc(-c2nc(-c3ccc(Br)cc3)no2)c(OC)c1	inactive	
O=C(O)c1cc(O)c(O)c(O)c1	inactive	
CN(Cc1ccccc1)S(=O)(=O)c1ccc2[nH]c3c(c2c1)CCCCC3	inconclusive: 6.49% [signal inhibitor]	
CCN1CCN(C(c2ccc(C)cc2)c2c(O)cc(C)n(Cc3ccco3)c2=O)CC1 (centres undefined)	inconclusive: 2.93% [signal inhibitor]	
Cc1ccc(N2CCN(C(=O)c3cnn(-c4ccc(F)cc4F)c3C3CCN(C(=O)OC(C)(C)C)CC3)CC2)c(C)c1	inactive	
O=C(c1cnccn1)N1CCC2(CCCN(c3cccc(-c4ccccc4)c3)C2)CC1	inactive: 2.46% [at 11.4 µM, scaled: untreated 0%, proteasome inhibitor 100%]	
COc1ccc(-c2cc3nc(C)c(CCC(=O)N4CCN(c5ccc(F)cc5)CC4)c(C)n3n2)c(OC)c1		inconclusive: 15.8 µM [signal inhibitor, partial curve]
Cc1ccc(Nc2nc3ccccc3c3nnc(C)n23)c(C)c1		inconclusive: 25.1 µM [signal inhibitor]
Nn1c(SCC(=O)Nc2ccc(Oc3ccccc3)cc2)nnc1C1CC1	inconclusive: 2.27% [signal inhibitor]	
CCn1c(C(=O)N2CCc3ccccc3C2)cc2sccc21		inconclusive: 20 µM [signal inhibitor, partial curve]
CC(=O)c1cccc(Nc2cc(C)nc3nc(Cc4ccccc4)nn23)c1	inconclusive: 7.1% [signal inhibitor]	
COc1ccc(NC(=O)c2c(C)oc3ccc(O)c(CN4CCN(Cc5ccccc5)CC4)c23)cc1Cl	inconclusive: 1.36% [signal inhibitor]	
Cc1ccc(-c2nn3c(-c4ccco4)nnc3c3ccccc23)cc1S(=O)(=O)N1CCOCC1	inactive	
CCn1c(SCc2cccc(C(F)(F)F)c2)nnc1-c1ccco1	inconclusive: 2.18% [signal inhibitor]	
O=C(CC1C(=O)N(c2ccccc2)C(=O)N1CCc1cccs1)Nc1ccc(F)cc1 (centres undefined)	inconclusive: 1.96% [signal inhibitor]	
O=C(NCCN1CCN(c2cccc(Cl)c2)CC1)Nc1ccccc1C(F)(F)F	inconclusive: 11.1% [signal inhibitor]	

SMILES	IkBa stabilization activation	Potency
O=C(COc1ccc2ccc(=O)oc2c1)Nc1ccc2c(c1)OCCO2	inactive	
Cc1ccc(CNc2nc(-c3ccco3)nn2S(=O)(=O)c2ccc3ccccc3c2)cc1	inconclusive: -0.101% [signal inhibitor]	
O=C(CSc1ncc(-c2ccccc2)[nH]1)Nc1ccc(Cl)cc1	inconclusive: 16.6% [signal inhibitor]	
Cc1ccc(S(=O)(=O)Nc2cc3c(cc2NCc2ccccc2)n(C)c(=O)n3C)cc1	inconclusive: 17.8% [signal inhibitor]	
O=C(Cn1c(=O)nc(-c2ccccc2)c2cc(Cl)ccc21)N1CCN(c2ccccc2F)CC1	inconclusive: 2.43% [signal inhibitor]	
Cc1c(C(=O)OCC(=O)c2ccc3c(c2)OCCO3)oc2ccccc12	inconclusive: 4.67% [signal inhibitor]	
CCOC(=O)c1sc2ccccc2c1S(=O)(=O)N1CCN(c2cccc(C)c2)C(C)C1 (centres undefined)	inconclusive: 1.68% [signal inhibitor]	
Cc1ccccc1CNC(=O)c1oc2c(c1C)-c1[nH]ncc1CC2	inconclusive: 0.289% [signal inhibitor]	
Cc1ccc2nc(Cl)c3cc(C(=O)N4CCCCC4C)sc3c2c1 (centres undefined)	inconclusive: 1.65% [signal inhibitor]	
Cc1ccccc1Nc1nn2c(=O)c3ccc(C(=O)NCCc4ccc(Cl)cc4)cc3nc2s1	inconclusive: 0.173% [signal inhibitor]	
COc1ccc(Cl)cc1NC(=O)CN1C(=O)C(C)(C)c2cc(S(=O)(=O)N3CCCCC3)ccc21	inconclusive: 1.84% [signal inhibitor]	
CC(C)C1C(=O)Nc2ccc(S(=O)(=O)NCCc3ccc(Cl)cc3)cc21 (centres undefined)	inconclusive: 2.28% [signal inhibitor]	
Cc1cccc(-n2ncc(C(=O)N3CCN(c4ccc(C)cc4C)CC3)c2C2CCN(C(=O)OC(C)(C)C)CC2)c1	inconclusive: 2.95% [signal inhibitor]	
Cc1cc(N2CCN(C)CC2)nc2ccc(NC(=O)Nc3cccc(Cl)c3)cc12	inactive	
Cc1cc(C)nc(SCc2nnc(SCc3ccccc3Cl)o2)n1	inactive	
CC(=O)NCCc1ccc(O)c(O)c1	inactive	
COC(=O)c1ccc(COC(=O)C23CC4CC(CC(O)(C4)C2)C3)o1	inactive	
Cc1ccsc1CN(C(=O)c1oc2ccc(Br)cc2c1C)C1CCS(=O)(=O)C1 (centres undefined)	inconclusive: 3.36% [signal inhibitor]	
Cc1ccc(Cl)cc1N1CCN(C(=O)c2c(C)oc3ncnc(N4CCCCC4)c23)CC1	inconclusive: -2.92% [signal inhibitor]	
COc1cccc2c(C)nc(Nc3nc(CSc4nnc(C)s4)cc(=O)[nH]3)nc12	inactive	
